# Reference: PubChem BioAssay AID1508642 (National Center for Advancing Translational Sciences (NCATS), 2021)
# About 200 (0.47%) of roughly 43,000 compounds were called active. Roughly 12% stayed inconclusive and do not appear here. Calls follow the shape of the dose curve; as a rule, active = well fitted cell-killing curve with a large enough effect; inconclusive = small, poorly fitted or top-dose-only effect, or effect the other way; inactive = flat fitted curve, though single readings scatter. Some of the results follow.
# Assay: Cell viability qHTS assay in S16 Pmp22-F2sN cells; also: nearly all actives have a fitted effect of over 65% in size
# Conditions: S16 Pmp22-F2sN Schwann cells (luciferase reporters placed in the Pmp22 gene) viability, CellTiter-Glo, 24 h; series mostly up to 57.5 µM; activity change, negative = cytotoxicity: at the top concentration
# In short: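 Luminescence from CellTiter-Glo, read by CCD camera after a 15 min room-temperature incubation, served as the viability signal. Reporter Schwann cells (S16 Pmp22-F2sN) had been treated with pin-transferred compounds for 24 h at 37C.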
# % is scaled to controls: 0 for no effect and ±100 for the full control effect; potency is read from the fitted curve at half-maximal effect.
SMILES,"activity change, negative = cytotoxicity",Potency
CC(C)Oc1ccc(CNC(=O)c2cccc(NC(=O)c3nsc4ccccc34)c2)cc1,inactive: -29.8%,–
COc1ccc(C2C=C(c3ccccc3)Nc3nc(NC(=O)/C=C/c4ccccc4OC)nn32)cc1 (stereo not given),inactive: -17%,–
Cc1cccc(OCC(=O)N(Cc2ccc(N(C)C)cc2)Cc2ccco2)c1C,inactive: -4.5%,–
Cc1ccnc2nc(NC(=O)c3ccccc3Cl)nn12,inactive: 18.9%,–
COC(=O)c1scc(-c2ccccc2)c1S(=O)(=O)Nc1ccc(C)c(Cl)c1,inactive: 3.91%,–
CCOc1ccc(NC(=O)c2c(NCc3cccs3)sc3c2CCCCC3)cc1,inactive: -1.59%,–
CC12CN3CC(c4ccccc4)(CN(C1)C3c1ccc(Cl)cc1)C2=O (stereo not given),inactive: 15.6%,–
CC(=O)c1cc(-c2ccccc2)n(CCC(=O)NC2CCCCC2)c1C,inactive: 2.92%,–
Cc1cccc(N(CC(=O)N(C)Cc2ccccc2)S(=O)(=O)c2ccccc2)c1C,inactive: 17.5%,–
CCC(=O)N1CCc2cc(Br)cc(S(=O)(=O)N3CCCC(C(=O)Nc4ccc(OC)cc4OC)C3)c21 (stereo not given),inactive: -2.88%,–
CCc1ccc(S(=O)(=O)c2nnn3c2nc(NC(C)C)c2cc(Cl)ccc23)cc1,inactive: 1.88%,–
CCOc1ccc(NC(=O)CCC(=O)N2CCSc3ccccc32)cc1,inactive: -7.83%,–
CCc1ccccc1NC(=O)Cn1c(=O)n(CCc2ccccc2)c(=O)c2ccccc21,inactive: 19.2%,–
CCCC(=O)n1nc(-c2cccnc2)nc1NCc1ccccc1,inactive: -1.21%,–
COc1ccc(N2CCN(C(=O)Nc3ccccc3Cl)CC2)cc1,inactive: -8.19%,–
COc1ccc(Cn2c(CCC(=O)Nc3ccc(OC)c(Cl)c3)nc3cccnc32)cc1,inactive: 3.1%,–
O=C(NCCc1ccc(Cl)cc1)c1ccc(CSCc2ccc(Cl)cc2)o1,inactive: -6.06%,–
Clc1ccccc1-c1nnc(SCc2nc(-c3ccccc3)no2)n1-c1ccccc1,inactive: -20.8%,–
COc1cccc(NC(=O)CSC2=Nc3ccccc3C3=NC(CC(=O)NCc4ccccc4OC)C(=O)N23)c1 (stereo not given),inactive: -10.2%,–
CCCCNC(=O)CCSc1nc(-c2ccc3c(c2)OCO3)cc(C(F)(F)F)n1,inactive: -1.33%,–
O=c1oc2ccc(Cl)cc2cc1-c1cn2c(n1)sc1ccccc12,inactive: -0.606%,–
CCOC(=O)N1CCN(S(=O)(=O)N2CCCC(C(=O)NCc3ccc(OC)cc3OC)C2)CC1 (stereo not given),inactive: 9.69%,–
COc1ccc(NS(=O)(=O)c2c(C)nc3scc(C)n3c2=O)cc1,inactive: -22.2%,–
O=C(Nc1ccc2nc(SCC(=O)N3CCOCC3)sc2c1)c1cccc(F)c1,inactive: 15.3%,–

SMILES,"activity change, negative = cytotoxicity",Potency
O=C(Nc1cc(-c2nc3cc(Cl)ccc3o2)ccc1Cl)c1cc([N+](=O)[O-])ccc1N1CCOCC1,inactive: 3.45%,–
Cc1cc2n(n1)CCC(=O)N2Cc1ccc(C(=O)Nc2ccc(F)cc2F)cc1,inactive: -12.4%,–
COc1ccc(-c2nc3scc(CCNC(=O)c4cccc(Br)c4)n3n2)cc1,inactive: 22.4%,–
Cc1cc(-c2ccc(S(=O)(=O)N3CCN(c4ccc(Cl)cc4)CC3)s2)on1,inactive: 1.76%,–
CCOC(=O)c1ccc(N2C(=O)c3[nH]nc(-c4ccc(OCC)cc4)c3C2c2cccs2)cc1 (stereo not given),inactive: 4.31%,–
CCOC(=O)c1ccc(NC(=O)CC2Nc3ccccc3NC2=O)cc1 (stereo not given),inactive: -2.59%,–
CCOc1cccc2c1Oc1nc(-c3ccccc3)nc(SCC(=O)Nc3ccc(F)cc3)c1C2,inactive: 8.89%,–
O=C(c1ccccc1Cl)N1CCCCC1CCN1CCOCC1 (stereo not given),inactive: 25.1%,–
Cc1ccc(CNCc2cccn2-c2nnc(N3CCCC3)s2)cc1,inactive: -5.81%,–
COc1ccc(CNC(=O)Cn2c(=O)ccc3cc(S(=O)(=O)N4CCCC4)ccc32)cc1,inactive: 3.57%,–
Cc1ccc(Cn2c(CNC(=O)Cc3cccc(C)c3)nc3cccnc32)cc1,inactive: 0.214%,–
CC(=O)c1ccc(N2CCN(S(=O)(=O)c3cc(-c4noc(C)n4)ccc3C)CC2)cc1,inactive: 16.6%,–
Cc1nn(S(=O)(=O)c2ccc(C(C)(C)C)cc2)c(C)c1S(=O)(=O)N1CCC(C)CC1,inactive: 11%,–
CCOC(=O)c1c(NC(=O)COc2ccc(C)cc2C(C)(C)C)sc2c1CCC(C)C2 (stereo not given),inactive: 9.08%,–
Cc1c(C(=O)N2CCC(C)CC2)c(S(=O)(=O)Nc2cccc(C(F)(F)F)c2)c(C)n1C,inactive: 3.33%,–
CC(C)N(Cc1ccccc1)C(=O)C1CCCN(c2ncnc3onc(-c4ccc(F)cc4)c23)C1 (stereo not given),inactive: -5.65%,–
COCC(=O)Nc1cccc(-c2nc3cccnc3s2)c1,inactive: 7.74%,–
COc1ccccc1CNC(=O)c1cnc(SC)nc1C,inactive: 5.33%,–
COc1ccc2[nH]cc(CCNC(=O)c3cnn(-c4ccc(C)cc4)c3C3CCN(C(=O)OC(C)(C)C)CC3)c2c1,inactive: 3.33%,–
COCCN1C(=O)c2oc3ccc(C)cc3c(=O)c2C12C(=O)N(C)c1ccccc12 (stereo not given),inactive: 3.9%,–
CC(=O)Nc1ccc(NC(=O)C2(c3cccs3)CCOCC2)cc1,inactive: 5.1%,–
Cc1ccc(NC(=O)CSc2nc(=O)n(Cc3ccco3)c3c2CCC3)cc1F,inactive: -13.1%,–
O=C(Nc1sc2c(c1C(=O)Nc1cccc(Cl)c1)CCCC2)c1cccs1,inactive: -9.33%,–
Cn1c(=O)c(=O)n(C)c2cc(N3CCCC3)c(NC(=O)c3ccccc3F)cc21,inactive: 10.7%,–

SMILES,"activity change, negative = cytotoxicity",Potency
CCn1nc(-c2ccccc2)c(-c2ccccc2)c(C(=O)Nc2nc(C)c(C(C)=O)s2)c1=O,inactive: 3.03%,–
CCC(=O)N1CCc2cc(CNC(=O)c3ccc(OC)cc3)ccc21,inactive: -2.85%,–
CCCCn1cc(S(=O)(=O)c2ccc(C)c(C)c2)c(=O)c2cc(F)c(N(CC)CC)cc21,inactive: -23.6%,–
COc1ccc(-c2nc(CN3CCC(C(=O)NCCc4ccccc4)CC3)c(C)o2)cc1OC,inactive: 3.57%,–
CCn1nnc2cc(C(=O)Nc3ccc(C)c(Cl)c3)ccc21,inactive: -7.49%,–
Cc1ccc(NC(=O)c2cc(S(=O)(=O)NC3CCCCC3)ccc2F)cc1Cl,inactive: -31.5%,–
Cc1ccc2c(c1)-c1onc(C(=O)N3CCN(c4cc(Cl)ccc4C)CC3)c1CO2,inactive: -14.6%,–
COC(=O)c1ccccc1NC(=O)c1cc(CN2CCCC2)on1,inactive: -4.64%,–
CC1Cc2ccccc2N1S(=O)(=O)c1nnc(NC(=O)c2cccc(F)c2)s1 (stereo not given),inactive: -3.65%,–
CCC(=O)N1CCc2cc(CNC(=O)Cc3ccc(F)cc3)ccc21,inactive: -1.96%,–
Cc1cccc(Cn2c(COc3ccc(Cl)cc3)nc3ccccc32)c1,inactive: -29.7%,–
Cc1ccc(CCNC(=O)c2cc3n(n2)CCCN(Cc2ccc(C)cc2)C3=O)cc1,inactive: 0.668%,–
CCc1nnc(SCC(=O)Nc2cc(OC)ccc2OC)nc1CC,inactive: -3.42%,–
CCN(Cc1ccccc1)C(=O)c1cc2c(=O)[nH]c3ccc(C)cc3c2s1,inactive: -0.51%,–
Cc1ccc(NC(=O)N2CCN(c3ccc(Cl)c(Cl)c3)CC2)cc1,inactive: -29.7%,–
Cc1nnc(NC(=O)CSc2nccn2Cc2ccc(Cl)cc2)s1,inactive: -0.357%,–
O=C(CSc1cn(CCNC(=O)c2c(F)cccc2F)c2ccccc12)Nc1ccc(F)cc1,inactive: 11.7%,–
COc1ccc2c(c1)c1c(c(=O)n(-c3ccccc3C)c(=O)n1C)n2C,inactive: 2.51%,–
CCN(CC)S(=O)(=O)c1cccc(C(=O)Nc2sc3c(c2C#N)CCC(C)C3)c1 (stereo not given),inactive: -14%,–
Cc1cc(C)c(S(=O)(=O)N2CCC(N3CCN(Cc4ccccc4)C(=O)C3=O)CC2)c(C)c1,inactive: -8.31%,–
COc1ccc(-n2ncc(C(=O)N3CCN(c4cc(C)ccc4C)CC3)c2C2CCN(C(=O)OC(C)(C)C)CC2)cc1,inactive: 11.2%,–
CCN(CC)CCNC(=O)c1cn(CCOC)c(=O)c2c1c1ccccc1n2C,inactive: 0.305%,–
COc1ccc(CNCc2c(C(=O)O)c(C)n(Cc3ccccc3C)c2C)c(OC)c1,inactive: 3.32%,–
COc1ccc(Nc2cc(C)c3cc(NC(=O)Cc4ccc(Cl)cc4)ccc3n2)cc1,inactive: 18.6%,–

SMILES,"activity change, negative = cytotoxicity",Potency
O=C(Nc1ccc(F)c(Cl)c1)N1CCC2(CC1)Oc1ccccc1C(=O)N2Cc1ccccc1F,inactive: 18.7%,–
Cc1nc2nc(NC(=O)CC(C)C)[nH]n2c(=O)c1Cc1ccccc1,inactive: -3.45%,–
CCc1ccccc1NC(=O)Cc1ccc(NC(=O)N2CCCCc3ccccc32)cc1,inactive: 14.9%,–
CCS(=O)(=O)c1ncc(Cl)c(C(=O)Nc2c(C(=O)Nc3cccc(C)c3)oc3ccccc23)n1,–,active: 2240 nM
Cc1ccc(-c2c(C(=O)N3CCN(c4cc(Cl)ccc4C)CC3)oc(=O)c3ccccc23)cc1,inactive: 21.9%,–
COc1ccc(C)cc1NC(=O)c1cc2c(=O)n(Cc3cccnc3)ccc2nc1C,inactive: -9.3%,–
Cc1cccc(CNC(=O)c2ccc3oc(=O)n(Cc4ccccc4)c3c2)c1,inactive: -21.3%,–
O=S(=O)(c1ccc(Br)cc1)c1nnn2c1nc(NCc1ccc3c(c1)OCO3)c1sccc12,inactive: 17.6%,–
CCCOc1ccc(CNC(=O)CCCn2nc(C)c3sc4ccccc4c3c2=O)cc1,inactive: 5.25%,–
Cc1ccc(CNC(=O)CCCCCn2c(=O)c3sccc3n(CC(=O)Nc3c(C)cc(C)cc3C)c2=O)cc1,inactive: 6.65%,–
COc1cc(Cl)c(C)cc1NC(=O)Cn1ncc2c1-c1cc(C)ccc1OC2,inactive: 5.92%,–
CCCSc1ncc(Cl)c(C(=O)Nc2c(C(=O)Nc3ccc(OC)cc3)oc3ccccc23)n1,inactive: 0.558%,–
COc1ccc(C(=O)Nc2nnc(SCc3cc(=O)n4cccc(C)c4n3)s2)cc1,inactive: -3.59%,–
CCc1ccc(C(=O)N2CCC(c3nc(-c4ccc(S(=O)(=O)N5CCCC5)cc4)no3)CC2)cc1,inactive: -29.5%,–
O=C(O)c1ccc(CNCc2ccccc2Cl)s1,inactive: -0.208%,–
Cn1nc(C(=O)NCc2ccccc2Cl)c2c1-c1ccccc1S(=O)(=O)C2,inactive: -25.7%,–
CSc1ccc(CNC(=O)C2CCN(c3nc4ccccc4nc3C(F)(F)F)CC2)cc1,inactive: -2.73%,–
COc1ccc(Cl)cc1NC(=O)C1CCN(S(=O)(=O)c2ccc3c(c2)CC(C)N3C(C)=O)CC1 (stereo not given),inactive: -2.56%,–
CC1CCCN(Cc2nc3c(c(=O)n(C)c(=O)n3C)n2Cc2ccc(Cl)cc2)C1 (stereo not given),inactive: 4.25%,–
O=C(Nc1cc(Cl)ccc1Cl)c1cc2nc(-c3ccc4c(c3)OCO4)cc(C(F)(F)F)n2n1,inactive: 3.3%,–
COc1ccc(C(=O)NCc2ccc3c(c2)CCN3C(=O)c2ccc(C)cc2)cc1,inactive: 12.6%,–
COc1ccc(-c2c(C)nn3c(C(F)(F)F)cc(-c4ccccc4)nc23)cc1,inactive: 1.23%,–
COc1ccc(OC)c(NC(=O)c2cc(C3CC3)nc3c2c(C)nn3-c2ccc(C)cc2)c1,inactive: -17.8%,–
